# In the supplement of paper PMC8728848:
# The list shows a part of the results.
# B1: LSL-150 (Laetiporus sulphureus), Q7Z8V1 (protein)
# chain: MTDIYIPPEGLYFRLLGFASRQVIFARNSPSPDVGLSPVNDQATDQYFSLIYGTGEHAGLYAIKSKATGKVLFSRRPAEPYVGQIDGDGRYPDNWFKIEPGKTYLSKYFRLVQPSTGTALVSRTHLQPYFWNHPQTEVFDDQYFTFLFEDHHHHHH
# Assays:
# Experiment in all cases: glycan array binding signal (z-score within array); higher = stronger binding
# Settings in all cases: glycan notation: IUPAC condensed, linker removed
# Fuc(a1-2)Gal = biological target: Fuc(a1-2)Gal
# In short: (§1)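 The binding signal is a Z-score computed within each array and averaged over linkers. Arrays of the same protein sequence at different concentrations or buffers were also averaged together. Data originate from 3228 arrays in the Consortium for Functional Glycomics database, kept only where the protein sequence was available.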
# Fuc(a1-2)Gal(b1-3)GalNAc = biological target: Fuc(a1-2)Gal(b1-3)GalNAc
# In short: as §1
# [1] = biological target: Fuc(a1-2)Gal(b1-3)GalNAc(a1-3)[Fuc(a1-2)]Gal(b1-4)Glc
# In short: as §1
# [2] = biological target: Fuc(a1-2)Gal(b1-3)GalNAc(a1-3)[Fuc(a1-2)]Gal(b1-4)GlcNAc
# In short: as §1
# [3] = biological target: Fuc(a1-2)Gal(b1-3)GalNAc(b1-3)Gal
# In short: as §1
# [4] = biological target: Fuc(a1-2)Gal(b1-3)GalNAc(b1-3)Gal(a1-4)Gal(b1-4)Glc
# In short: as §1
# [5] = biological target: Fuc(a1-2)Gal(b1-3)GalNAc(b1-4)[Neu5Ac(a2-3)]Gal(b1-4)Glc
# In short: as §1
# Fuc(a1-2)Gal(b1-3)GlcNAc = biological target: Fuc(a1-2)Gal(b1-3)GlcNAc
# In short: as §1
# [6] = biological target: Fuc(a1-2)Gal(b1-3)GlcNAc(b1-2)Man(a1-3)[Fuc(a1-2)Gal(b1-3)GlcNAc(b1-2)Man(a1-6)]Man(b1-4)GlcNAc(b1-4)GlcNAc
# In short: as §1
# [7] = biological target: Fuc(a1-2)Gal(b1-3)GlcNAc(b1-2)Man(a1-3)[Fuc(a1-2)Gal(b1-3)GlcNAc(b1-2)Man(a1-6)]Man(b1-4)GlcNAc(b1-4)[Fuc(a1-6)]GlcNAc
# In short: as §1
# [8] = biological target: Fuc(a1-2)Gal(b1-3)GlcNAc(b1-3)Gal(b1-4)Glc
# In short: as §1
# [9] = biological target: Fuc(a1-2)Gal(b1-3)GlcNAc(b1-3)GalNAc
# In short: as §1
# [10] = biological target: Fuc(a1-2)Gal(b1-3)GlcNAc(b1-3)[Fuc(a1-2)Gal(b1-3)GlcNAc(b1-6)]GalNAc
# In short: as §1
# [11] = biological target: Fuc(a1-2)Gal(b1-3)GlcNAc(b1-3)[Gal(b1-4)GlcNAc(b1-6)]Gal(b1-4)Glc
# In short: as §1
# [12] = biological target: Fuc(a1-2)Gal(b1-3)GlcNAc(b1-3)[Neu5Ac(a2-6)Gal(b1-4)GlcNAc(b1-6)]Gal(b1-4)Glc
# In short: as §1
# [13] = biological target: Fuc(a1-2)Gal(b1-3)GlcNAc6S
# In short: as §1
# [14] = biological target: Fuc(a1-2)Gal(b1-3)[Fuc(a1-4)]GlcNAc
# In short: as §1
# [15] = biological target: Fuc(a1-2)Gal(b1-3)[Fuc(a1-4)]GlcNAc(b1-2)Man(a1-3)[Fuc(a1-2)Gal(b1-3)[Fuc(a1-4)]GlcNAc(b1-2)Man(a1-3)]Man(b1-4)GlcNAc(b1-4)GlcNAc
# In short: as §1
# [16] = biological target: Fuc(a1-2)Gal(b1-3)[Fuc(a1-4)]GlcNAc(b1-2)Man(a1-3)[Fuc(a1-2)Gal(b1-3)[Fuc(a1-4)]GlcNAc(b1-2)Man(a1-6)]Man(b1-4)GlcNAc(b1-4)[Fuc(a1-6)]GlcNAc(b1-4)[Fuc(a1-6)]GlcNAc
# In short: as §1
# [17] = biological target: Fuc(a1-2)Gal(b1-3)[Fuc(a1-4)]GlcNAc(b1-3)[Fuc(a1-3)[Gal(b1-4)]GlcNAc(b1-6)]Gal(b1-4)Glc
# In short: as §1
# [18] = biological target: Fuc(a1-2)Gal(b1-3)[Fuc(a1-4)]GlcNAc(b1-3)[Gal(b1-4)GlcNAc(b1-6)]Gal(b1-4)Glc
# In short: as §1
# [19] = biological target: Fuc(a1-2)Gal(b1-4)Fuc(a1-3)]GlcNAc(b1-2)Man(a1-3)[Fuc(a1-2)Gal(b1-4)[Fuc(a1-3)]GlcNAc(b1-2)Man(a1-6)]Man(b1-4)GlcNAc(b1-4)GlcNAc
# In short: as §1
# Fuc(a1-2)Gal(b1-4)Glc = biological target: Fuc(a1-2)Gal(b1-4)Glc
# In short: as §1
# Fuc(a1-2)Gal(b1-4)Glc6S = biological target: Fuc(a1-2)Gal(b1-4)Glc6S
# In short: as §1
# Fuc(a1-2)Gal(b1-4)GlcNAc = biological target: Fuc(a1-2)Gal(b1-4)GlcNAc
# In short: as §1
# [20] = biological target: Fuc(a1-2)Gal(b1-4)GlcNAc(b1-2)Man
# In short: as §1
# [21] = biological target: Fuc(a1-2)Gal(b1-4)GlcNAc(b1-2)Man(a1-3)[Fuc(a1-2)Gal(b1-4)GlcNAc(b1-2)Man(a1-6)]Man(b1-4)GlcNAc(b1-4)GlcNAc
# In short: as §1
# [22] = biological target: Fuc(a1-2)Gal(b1-4)GlcNAc(b1-2)Man(a1-3)[Fuc(a1-2)Gal(b1-4)GlcNAc(b1-2)Man(a1-6)]Man(b1-4)GlcNAc(b1-4)[Fuc(a1-6)]GlcNAc
# In short: as §1
# [23] = biological target: Fuc(a1-2)Gal(b1-4)GlcNAc(b1-2)[Fuc(a1-2)Gal(b1-4)GlcNAc(b1-4)]Man(a1-3)[Fuc(a1-2)Gal(b1-4)GlcNAc(b1-2)Man(a1-6)]Man(b1-4)GlcNAc(b1-4)GlcNAc
# In short: as §1
# [24] = biological target: Fuc(a1-2)Gal(b1-4)GlcNAc(b1-3)Gal(b1-4)GlcNAc
# In short: as §1
# [25] = biological target: Fuc(a1-2)Gal(b1-4)GlcNAc(b1-3)Gal(b1-4)GlcNAc(b1-2)Man(a1-3)[Fuc(a1-2)Gal(b1-4)GlcNAc(b1-3)Gal(b1-4)GlcNAc(b1-2)Man(a1-6)]Man(b1-4)GlcNAc(b1-4)GlcNAc
# In short: as §1
# [26] = biological target: Fuc(a1-2)Gal(b1-4)GlcNAc(b1-3)Gal(b1-4)GlcNAc(b1-3)Gal(b1-4)GlcNAc
# In short: as §1
# [27] = biological target: Fuc(a1-2)Gal(b1-4)GlcNAc(b1-3)GalNAc
# In short: as §1
# [28] = biological target: Fuc(a1-2)Gal(b1-4)GlcNAc(b1-3)[Fuc(a1-2)Gal(b1-4)GlcNAc(b1-6)]GalNAc
# In short: as §1
# [29] = biological target: Fuc(a1-2)Gal(b1-4)GlcNAc(b1-3)[Fuc(a1-3)[Gal(b1-4)]GlcNAc(b1-6)]Gal(b1-4)Glc
# In short: as §1
# [30] = biological target: Fuc(a1-2)Gal(b1-4)GlcNAc(b1-6)GalNAc
# In short: as §1
# [31] = biological target: Fuc(a1-2)Gal(b1-4)GlcNAc6S
# In short: as §1
# [32] = biological target: Fuc(a1-2)Gal(b1-4)[Fuc(a1-3)]GlcNAc
# In short: as §1
# [33] = biological target: Fuc(a1-2)Gal(b1-4)[Fuc(a1-3)]GlcNAc(b1-2)Man(a1-3)[Fuc(a1-2)Gal(b1-4)[Fuc(a1-3)]GlcNAc(b1-2)Man(a1-6)]Man(b1-4)GlcNAc(b1-4)[Fuc(a1-6)]GlcNAc
# In short: as §1
# [34] = biological target: Fuc(a1-2)Gal(b1-4)[Fuc(a1-3)]GlcNAc(b1-2)[Fuc(a1-2)Gal(b1-4)[Fuc(a1-3)]GlcNAc(b1-4)]Man(a1-3)[Fuc(a1-2)Gal(b1-4)[Fuc(a1-3)]GlcNAc(b1-2)Man(a1-6)]Man(b1-4)GlcNAc(b1-4)GlcNAc
# In short: as §1
# [35] = biological target: Fuc(a1-2)Gal(b1-4)[Fuc(a1-3)]GlcNAc(b1-3)Gal(b1-4)[Fuc(a1-3)]GlcNAc
# In short: as §1
# [36] = biological target: Fuc(a1-2)Gal(b1-4)[Fuc(a1-3)]GlcNAc(b1-3)Gal(b1-4)[Fuc(a1-3)]GlcNAc(b1-3)Gal(b1-4)[Fuc(a1-3)]GlcNAc
# In short: as §1
# [37] = biological target: Fuc(a1-2)Gal(b1-4)[Fuc(a1-3)]GlcNAc(b1-3)GalNAc
# In short: as §1
# [38] = biological target: Fuc(a1-2)Gal(b1-4)[Fuc(a1-3)]GlcNAc(b1-3)[Neu5Ac(a2-6)Gal(b1-4)GlcNAc(b1-6)]Gal(b1-4)Glc
# In short: as §1
# [39] = biological target: Fuc(a1-2)Gal3S(b1-4)GlcNAc
# In short: as §1
binder,measurement,setting,value
B1,glycan array binding signal (z-score),Fuc(a1-2)Gal,-0.212
same,glycan array binding signal (z-score),Fuc(a1-2)Gal(b1-3)GalNAc,-0.206
same,glycan array binding signal (z-score),[1],-0.208
same,glycan array binding signal (z-score),[2],-0.208
same,glycan array binding signal (z-score),[3],-0.209
same,glycan array binding signal (z-score),[4],-0.214
same,glycan array binding signal (z-score),[5],-0.2
same,glycan array binding signal (z-score),Fuc(a1-2)Gal(b1-3)GlcNAc,-0.201
same,glycan array binding signal (z-score),[6],-0.195
same,glycan array binding signal (z-score),[7],-0.202
same,glycan array binding signal (z-score),[8],-0.205
same,glycan array binding signal (z-score),[9],-0.209
same,glycan array binding signal (z-score),[10],-0.197
same,glycan array binding signal (z-score),[11],-0.19
same,glycan array binding signal (z-score),[12],-0.2
same,glycan array binding signal (z-score),[13],-0.196
same,glycan array binding signal (z-score),[14],-0.213
same,glycan array binding signal (z-score),[15],-0.191
same,glycan array binding signal (z-score),[16],-0.2
same,glycan array binding signal (z-score),[17],-0.213
same,glycan array binding signal (z-score),[18],-0.203
same,glycan array binding signal (z-score),[19],-0.201
same,glycan array binding signal (z-score),Fuc(a1-2)Gal(b1-4)Glc,-0.211
same,glycan array binding signal (z-score),Fuc(a1-2)Gal(b1-4)Glc6S,-0.195
same,glycan array binding signal (z-score),Fuc(a1-2)Gal(b1-4)GlcNAc,-0.209
same,glycan array binding signal (z-score),[20],-0.193
same,glycan array binding signal (z-score),[21],-0.206
same,glycan array binding signal (z-score),[22],-0.202
same,glycan array binding signal (z-score),[23],-0.212
same,glycan array binding signal (z-score),[24],-0.173
same,glycan array binding signal (z-score),[25],-0.103
same,glycan array binding signal (z-score),[26],0.832
same,glycan array binding signal (z-score),[27],-0.197
same,glycan array binding signal (z-score),[28],-0.206
same,glycan array binding signal (z-score),[29],-0.2
same,glycan array binding signal (z-score),[30],-0.198
same,glycan array binding signal (z-score),[31],-0.202
same,glycan array binding signal (z-score),[32],-0.204
same,glycan array binding signal (z-score),[33],-0.208
same,glycan array binding signal (z-score),[34],-0.208
same,glycan array binding signal (z-score),[35],-0.21
same,glycan array binding signal (z-score),[36],-0.198
same,glycan array binding signal (z-score),[37],-0.201
same,glycan array binding signal (z-score),[38],-0.204
same,glycan array binding signal (z-score),[39],-0.205
